The source gives no read counts; variants with many changes may rest on few reads.
B1: LINE1-mini (parent)
chain: GGCAGAGCUCAACACAGCGUGGCAAAGUGGCUGUGGCUAGACUGCC

Variants of: B1
Assay: self-cleavage, relative activity (ratio to wild type); higher = more cleavage; in vitro, sequencing; the parent is a self-cleaving ribozyme

Row | Variant | self-cleavage
1 | G7C C10A G19A U38A | 0.01
2 | G7C C10A G19C | 0.04
3 | G7C C10A G27A U32A | 0.02
4 | G7C C10A G36U U43C | 0
5 | G7C C10A G40A | 0.03
6 | G7C C10A U20A C42A | 0
7 | G7C C10G A12G | 0.01
8 | G7C C10G A14U C15G U32C C45A | 0.02
9 | G7C C10G A41U G44U | 0.01
10 | G7C C10G G17A G29A | 0.1
11 | G7C C10G G17U G21U | 0.03
12 | G7C C10G G27U | 0.01
13 | G7C C10U A12C C46G | 0.01
14 | G7C C10U A12U G29A C42A C45U | 0.01
15 | G7C C10U A14G A25C C31A C45U | 0.07
16 | G7C C10U A16C G19C C45A | 0.03
17 | G7C C10U A26C | 0.02
18 | G7C C10U A26G C42U | 0.18
19 | G7C C10U A41G C42A | 0.02
20 | G7C C10U C37G | 0.05
21 | G7C C10U G27C A41U | 0.01
22 | G7C C10U U32C G40C C42A C45A | 0.06
23 | G7C C10U U38C | 0.03
24 | G7C C13A A16C A25C A39C | 0.03

Row | Variant | self-cleavage
25 | G7C C13A A25C U43A | 0.05
26 | G7C C13A A39G | 0.07
27 | G7C C13A C15G C31G | 0.03
28 | G7C C13A C15U C31U | 0.13
29 | G7C C13A C31A U43A | 0.02
30 | G7C C13A C37A | 0.07
31 | G7C C13A C42G | 0.09
32 | G7C C13G C37A A39U | 0.15
33 | G7C C13G G19A | 0.08
34 | G7C C13U A14U A25G G27A G44C | 0.05
35 | G7C C13U A16C U20G G27A U28A | 0.02
36 | G7C C13U C15G G22U | 0.07
37 | G7C C13U C15U G17U | 0.05
38 | G7C C13U C37G G44C | 0.03
39 | G7C C13U G21A G27C G30U G36C | 0.31
40 | G7C C13U G33A C46U | 0.13
41 | G7C C13U U20G G27C G29A U32G | 0.05
42 | G7C C13U U28G G30U | 0.02
43 | G7C C13U U32C C42A | 0.02
44 | G7C C15A C23A | 0.06
45 | G7C C15A C23G | 0.08
46 | G7C C15A G17U | 0.01
47 | G7C C15A G36U C45G | 0.02
48 | G7C C15G U20A G21C A24U G36C | 0.03

Row | Variant | self-cleavage
49 | G7C C15U A24C G44U | 0.13
50 | G7C C15U A25G C45G | 0.02
51 | G7C C15U G30U | 0.07
52 | G7C C15U G33U | 0.06
53 | G7C C18A C31A C46U | 0.04
54 | G7C C18A C46G | 0.06
55 | G7C C18G A39U | 0.05
56 | G7C C18G G19C G33A | 0.03
57 | G7C C18G G21A C31U U32C G35U | 0.03
58 | G7C C18G G35A | 0.16
59 | G7C C18U C31U U34C | 0.02
60 | G7C C18U G36U C37A | 0.21
61 | G7C C18U U32C G33U C37U C45U | 0.03
62 | G7C C23A C42G | 0.02
63 | G7C C23A C46A | 0.01
64 | G7C C23A G27C G30C | 0.07
65 | G7C C23A G35U G36U C42U | 0.08
66 | G7C C23A U32G G44A | 0.05
67 | G7C C23G G33A C42A | 0.03
68 | G7C C23G G44U | 0.15
69 | G7C C23U C37G | 0.02
70 | G7C C31G G44A | 0.03
71 | G7C C31U C37G A41G C42A | 0
72 | G7C C31U G35U C37U | 0.02

Row | Variant | self-cleavage
73 | G7C C31U G44A | 0.01
74 | G7C C37A U43A | 0.04
75 | G7C C37G C42U | 0.02
76 | G7C C37U C42A | 0
77 | G7C G17A A24G G30U A39U | 0.02
78 | G7C G17A C18G G36C C42A | 0.01
79 | G7C G17A C23A C42U | 0.13
80 | G7C G17A C23U U34A A39G | 0.02
81 | G7C G17A C42U | 0.03
82 | G7C G17A G27C C31A C45U | 0.07
83 | G7C G17A G40U | 0.08
84 | G7C G17U A25C G27U G35A G44C | 0.12
85 | G7C G17U A26G | 0.13
86 | G7C G17U A39C | 0.45
87 | G7C G17U C37G | 0
88 | G7C G17U G27C | 0.06
89 | G7C G19A A26C | 0.03
90 | G7C G19A A26G G27C C42U | 0.02
91 | G7C G19A G22C G27C | 0.3
92 | G7C G19A G27U G33U C46A | 0.05
93 | G7C G19A G36A | 0.24
94 | G7C G19A U38A | 0.03
95 | G7C G19C A24G C31U | 0.04
96 | G7C G19C A26C | 0.01

Row | Variant | self-cleavage
97 | G7C G19C C23G | 0.04
98 | G7C G19C C42U | 0.08
99 | G7C G19C G35U | 0
100 | G7C G19C G40A A41G | 0.03
101 | G7C G19U G21U | 0.03
102 | G7C G19U G22C | 0.03
103 | G7C G19U G30C | 0.03
104 | G7C G19U U32A | 0.12
105 | G7C G19U U38C C45G | 0.05
106 | G7C G21A C23G G30C C31U C37G G44U | 0.04
107 | G7C G21A C23U G36U A39U C46G | 0.02
108 | G7C G21A G22A A39U | 0.11
109 | G7C G21A G27A G29U U34C | 0.02
110 | G7C G21A U32G | 0.42
111 | G7C G21C G29U G33A U38A C42A | 0.05
112 | G7C G21C G33U C42U | 0.01
113 | G7C G21U C31A | 0.08
114 | G7C G22A C31U | 0.09
115 | G7C G22A G35U | 0.09
116 | G7C G22C C45A | 0.07
117 | G7C G22C G35U | 0.02
118 | G7C G22U A26C U34A | 0.02
119 | G7C G22U A26G C31A | 0.02
120 | G7C G22U C46U | 0.05

Row | Variant | self-cleavage
121 | G7C G22U G27C U34G C46A | 0.07
122 | G7C G22U G30A G44A | 0.11
123 | G7C G22U U43C | 0.04
124 | G7C G27A C45A | 0.03
125 | G7C G27A C46A | 0.41
126 | G7C G27A U38A C42U | 0.09
127 | G7C G27C C37G A39C | 0.02
128 | G7C G27U C42A | 0.02
129 | G7C G27U C46G | 0.17
130 | G7C G27U G36A C37G | 0.01
131 | G7C G27U G40U | 0.04
132 | G7C G29A G30C G40U | 0.03
133 | G7C G29A G33U G40A U43A | 0.67
134 | G7C G29A G36A C42A | 0.06
135 | G7C G29U C31A U38G | 0.03
136 | G7C G30A U43C | 0.14
137 | G7C G30C G35U | 0.18
138 | G7C G30C U32A G40U | 0.04
139 | G7C G30U C31A C37G G40C | 0.01
140 | G7C G30U G36A | 0.12
141 | G7C G33C G40A U43A G44U | 0.04
142 | G7C G33U C46A | 0.06
143 | G7C G35A C45G | 0.19
144 | G7C G35C G36A | 0.04

Row | Variant | self-cleavage
145 | G7C G35C G44A C46U | 0.08
146 | G7C G36A C42G C45A | 0
147 | G7C G36A G44C | 0.02
148 | G7C G36A U38G | 0.02
149 | G7C G36C C45A | 0.02
150 | G7C G36U A39G U43A G44A | 0.02
151 | G7C U9A A25G G40A | 0.03
152 | G7C U9A A26U G36C | 0.04
153 | G7C U9A A39C | 0.33
154 | G7C U9A C10A | 0.02
155 | G7C U9C C10A | 0.03
156 | G7C U9C C10G C13G G27A | 0
157 | G7C U9C C10G G30C | 0.02
158 | G7C U9C C46A | 0.02
159 | G7C U9C G22C A26U C37A | 0.01
160 | G7C U9C G27U C45U | 0.02
161 | G7C U9G A41U | 0.05
162 | G7C U9G C15G C31U | 0.01
163 | G7C U9G G19A A25C | 0.29
164 | G7C U20A C37G | 0.03
165 | G7C U20A G30U U43A | 0.02
166 | G7C U20A U28C C42A | 0.02
167 | G7C U20A U28C G30U | 0.03

Source: the RNAGym collection of RNA variant scans (doi:10.7554/elife.90254)
